Results from ChEMBL document CHEMBL4888484, “Replenishing the malaria drug discovery pipeline: Screening and hit evaluation of the MMV Hit Generation Library 1 (HGL1) against asexual blood stage Plasmodium falciparum ,using a nano luciferase reporter read-out” (2022).
Screen size: about 150,000 compounds; about 540 (0.36%) showed an effect of 50% or more. This is one part of the list.

test system: Plasmodium falciparum; assay: Primary screen in NF54 nanoGlo assay, in single point, at 2uM, 72h; a lower Z score goes with more inhibition; type: functional, Erythrocyte; details: timepoint 72 hour

SMILES	% Inhibition	Z score
CC1(C)Cc2nc(N3CCC(O)CC3)ncc2[C@@H](Nc2cc(C3CC3)ncn2)C1	7%	-1.25
O=C(Cc1cccs1)NC[C@]1(O)CCOc2ccccc21	4%	-0.54
O[C@H]1CCCN(CCCNc2cc(-c3ccccc3F)nc3ccnn23)C1	-6%	0.59
COc1ccc(-c2cnc3ncnn3c2N2CCN(Cc3c(C)cc(C)cc3C)CC2)cc1OC	-10%	1.43
COc1cc(NC(=O)N2CCOC[C@@H]2CC(C)C)cc(Cl)c1OC	16%	-2.02
O=C(NCc1ccc(Cl)cc1)c1ccc(Cl)c(-n2cnc3cccnc32)c1	1%	-0.17
CS(=O)(=O)c1ccc(Cl)c(C(=O)N2CCc3cc(S(=O)(=O)N4CCCCC4)ccc32)c1	-13%	2.52
Cc1ccc(C[C@H](CO)CNC(=O)c2cc3cc(F)ccc3o2)cc1	-1%	0.11
Cc1onc(N)c1S(=O)(=O)N1CCN(c2ccccn2)CC1	1%	-0.21
CCOCCCNC(N)=NCCc1ccc(OC(F)F)cc1	-2%	0.19
Cc1nn(CCCNC(=O)CC(=O)Nc2cccc(Cl)c2C)c(C)c1C	-4%	0.7
Cc1cc(C)n(-c2ccnc(N3CCN(c4ccccc4F)CC3)n2)n1	-27%	2.92
C[C@H](OC(=O)c1ccccc1)C(=O)Nc1ccc(S(=O)(=O)N2CCOCC2)cc1	-7%	1.43
C[C@@H](CNC(=O)C1(F)C(F)(F)C(F)(F)C(F)(F)C(F)(F)C1(F)F)NC(=O)C1(F)C(F)(F)C(F)(F)C(F)(F)C(F)(F)C1(F)F	-6%	0.94
Cn1cccc1C(=O)N1CCCC2CC21 (stereo not given)	0%	0.01
Cc1cc(Br)ccc1CN[C@@H](C)CO	2%	-0.21
COc1ccc(N2CCN(C(=O)C(=O)NC3CCCC3)CC2)cc1	-3%	0.48
C[C@H](NC(=O)C1CCN(S(=O)(=O)c2ccc3nc4c(c(C(=O)O)c3c2)CCCC4)CC1)c1ccccc1	-10%	1.52
CN(CCc1noc(C2CN(S(=O)(=O)c3cccnc3)C2)n1)C(=O)c1ccncc1	-3%	0.32
Cc1cc(C(=O)N2CCS(=O)(=O)C3CCCC32)oc1C (stereo not given)	-9%	1.88
Cc1nc(NC2CCCCC2)sc1C(=O)NCc1ccccc1	29%	-3.25
O=C(CCCN1CCCC1)c1ccc(F)c(F)c1	2%	-0.21
COCC[C@H]1COCCN1C(=O)c1ccnc(C2CC2)c1	-10%	1.69
Cc1cccc(-c2nc(NC[C@H]3CCCO3)nc3nn(-c4cc(F)ccc4F)c(N)c23)c1	-6%	1.03
CN1c2ccccc2C(=O)N[C@@H]1c1cccc2ccccc12	5%	-0.91
O=c1[nH]c2cc3c(cc2c(=O)n1Cc1nc(-c2cccc(F)c2)no1)OCO3	-1%	0.08
COCC(=O)N1CC[C@@]2(O)CCN(Cc3c(C)sc4ccccc34)C[C@H]2C1	-1%	0.13

SMILES	% Inhibition	Z score
Cc1ccc(C(=O)N2C[C@H]3CN(C(=O)C(C)C)C[C@@]3(CO)C2)cc1F	-9%	1.18
Cc1csc(C(C)CN2C(=O)NC(Cc3cccc4ccccc34)C2=O)n1 (stereo not given)	4%	-0.58
CC(C)C(=O)N(Cc1ccc(-c2cc(Cl)ccc2Cl)o1)[C@H]1CCS(=O)(=O)C1	-11%	1.48
O=C(OC1CCCC1)c1ccc(NC(=O)N2CCC3(CC2)C[C@H](O)CO3)cc1	-10%	1.59
Cc1ccc(CN2C[C@@H]3CC[C@H]2CN(c2cnccn2)C3)s1	-17%	2.71
CCN(CC)c1nc2cc(C(=O)NCc3ccc(C)cc3)ccc2c(=O)n1Cc1ccccc1	5%	-0.78
O=C(NC1(c2ccccc2)COC1)c1noc2c1COCC2	-14%	1.85
O=C(OC[C@@H](c1ccccc1)N1CCS(=O)(=O)CC1)c1ccc(Cl)c(Cl)c1	-5%	0.72
Cc1cc(C)cc(-n2nc(C(=O)NCC3CC3)c(=O)n(Cc3ccccc3F)c2=O)c1	-4%	0.51
Cc1noc(-c2ccccc2Cl)c1C(=O)NC[C@H]1CCCO1	0%	0.07
Cc1nc(N)nc(NCCC2(O)CCCC2)c1Cl	-10%	1.09
Cn1c(C(=O)NCCCO)cc2occc21	-6%	0.66
COC(=O)[C@@]1(c2ccccc2)N[C@@H](c2cc(C)ccc2O)[C@H]2C(=O)N(C)C(=O)[C@H]21	-3%	0.62
CC1CC(C(=O)NC2CCn3cncc32)CC(C)(C)C1 (stereo not given)	-13%	1.75
C[C@H]1C(=O)N(c2cccc(F)c2)CCN1C(=O)C1CCCC1	29%	-3.84
CCc1ccccc1NC(=O)Cn1cnc(-c2noc(-c3ccncc3)n2)c1	-14%	1.8
O=C1N[C@H]2C[C@@H](C(=O)NC[C@H]3O[C@H](CCOc4ccccc41)CC[C@@H]3O)N(Cc1ccncc1)C2	24%	-2.72
Cc1nnnn1CCC(=O)NCc1ccc2nonc2c1	-13%	1.17
Cc1cc2oc(C(=O)Nc3nc(-c4ccc(S(=O)(=O)N5CCCC5)cc4)cs3)c(C)c2cc1C	-12%	1.5
CC(C)(C)c1cc(CN2CC[C@@](O)(CN3CCCCC3)C2)n[nH]1	8%	-0.74
CCN1CCN(C2CN(C(=O)COCc3ccc(OC)cc3)C2)CC1	-4%	0.74
O=C(NC[C@H]1COCCO1)c1ccc(CN2CCC(O)(c3cccc(C(F)(F)F)c3)CC2)[nH]c1=O	5%	-0.71
Cc1cc(Br)ccc1OCCOCCNCCN	-5%	0.7
CCCCOc1ccc(-c2cc3c(N4CCN(C)CC4)nccn3n2)cc1	-2%	0.31
c1coc(-c2noc([C@H]3CCCc4[nH]ncc43)n2)c1	1%	-0.12
Cc1c(-c2nc3c([nH]2)CCCNC3=O)oc2ccccc12	1%	-0.16
O=C(c1cccc(C(F)(F)F)c1)N1CCO[C@]2(CNCCOC2)C1	12%	-1.63

SMILES	% Inhibition	Z score
CCCc1cnc(C)nc1N1C[C@@H]2NC(=O)CN(CCOC)C(=O)c3cncc(c3)Oc3cccc(c3)CO[C@H]2C1	-14%	1.77
C/C=C(\C)CN1C[C@H](NC(=O)c2ccnn2C)[C@@H](C2CC2)C1	-6%	1.07
NC(=O)N1CCC[C@H](Nc2ccc(C(F)(F)F)cn2)C1	9%	-1.62
COc1ccc(S(=O)(=O)Oc2cc(CN(C(=O)C3CCC3)C(C)C)ccc2OC)cc1	-10%	1.21
CC1CC(N(C)C(=O)C(N)Cc2ccccc2)CCN1Cc1ccccc1 (stereo not given)	-7%	0.94
O=S(=O)(Cc1cc(F)cc(F)c1)N1CC(C(F)F)C1	1%	-0.17
O=C(N1CCO[C@@H](CF)C1)C1(O)CCC1	-17%	1.98
O=C(NCC[C@]1(O)CCCOC1)c1ncccc1F	14%	-1.58
CC1(C)CCc2sc(CNC(=O)Cn3cn[nH]c3=O)cc2C1	-5%	0.47
CCN(CC)CCCOc1cc(C)cc(C)c1	-12%	2.21
O=C(O)Cn1ccc([C@H]2CCCN(Cc3cccc4cc[nH]c34)C2)n1	-1%	0.18
C=CCNC(=O)N1CCCC[C@H](N2CCN(C)CC2)C1	-8%	1.08
CN(CCNC(=O)N1C2CCC1CC(=O)C2)Cc1ccc(F)cc1	2%	-0.2
Cn1cc(CNC(=O)c2cc(F)c[nH]2)cn1	-3%	0.57
Cc1cc(C(=O)NCCc2cccc(-c3ccccc3)c2)n(C2CCOCC2)n1	4%	-0.57
Cc1cn(-c2c(F)cccc2F)nc1C(=O)NC1CC2CC2C1 (stereo not given)	-3%	0.63
CCCCOc1ccc(C(=O)N2CCn3cccc3[C@H]2c2cccc(OC)c2)cc1	-1%	0.17
CCC(=O)Nc1ccc(N2CCN(C(=O)c3cccc(F)c3)CC2)c(C(=O)N(C)Cc2ccccc2)c1	-15%	1.61
CC[C@H](C)N(CC(=O)N1CCN(c2ccc(-c3ccc(OC)c(OC)c3)nn2)CC1)C(=O)C1CCC1	2%	-0.23
Cc1ccc(C(=O)N[C@H]2COC[C@@H]2O)c2c1CCC2	3%	-0.49
CN1CCC(N[C@H]2C[C@@H](Cc3cc(COc4ccccc4)on3)C2(C)C)CC1	22%	-2.61
COCC(=O)N[C@@H]1CCN(C(=O)Cc2ccc(Cl)cc2)C[C@@H]1CO	-1%	0.17
CCNc1ncnc2sc(C(=O)N3CCCC3)c(C)c12	-15%	2.08
Cc1ccc(S(=O)(=O)c2c(Nc3ccccc3)nn3c(O)cc(CS(=O)(=O)c4ccccc4)nc23)cc1	-8%	1.4
CCOC(=O)c1cnc(-c2cccc(C(F)(F)F)c2)nc1N1CCCC2CCCCC21 (stereo not given)	-13%	1.49
CN(Cc1ccc(Cl)c(Cl)c1)C1CC[S+]([O-])CC1 (stereo not given)	-6%	0.64
